{
  "source": "PubChem BioAssay AID2546",
  "about": "(National Center for Advancing Translational Sciences (NCATS), 2010)",
  "note": "Values joined by “and” are separate entries in the source; they are usually repeats but may differ in a detail not shown here. Identical values can stand only once. The campaign covered roughly 310,000 compounds. About 11,000 (3.5%) were called active. This list was built around the results that the source calls inconclusive (neither active nor inactive); the mix of calls is not that of the screen. The call rests on the fitted dose curve; in most records, active means well fitted inhibition curve with a large enough effect; inconclusive means small, poorly fitted or top-dose-only effect, or effect the other way; inactive means flat fitted curve, though single readings scatter. A potency beside an inconclusive call is a rough fit, not a confirmed value. On the % scale 0 is the no-effect control and ±100 the full control effect; potency means the concentration at half of the fitted maximal effect; tags describe the fitted curve by direction and shape.",
  "data": [
    {"experiment": "VP16 counterscreen qHTS for inhibitors of ROR gamma transcriptional activity;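 further: Gal4-VP16 expression switched on by copper sulfate through the metallothionein promoter; nearly all actives have a fitted effect of over 50% in size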", "conditions": "Drosophila S2 Gal4-VP16 UAS-luciferase, luminescence, 20 h; activity, negative = inhibition: at 53.6 µM (top of the series)", "values": [
      {"compound": "Cc1c(C)n(Cc2ccccc2)c2ncnc(Cl)c12", "Potency": "inconclusive: 28.2 µM [inhibitor, single point]"},
      {"compound": "Cc1snc(SCC(=O)N/N=C(\\N)COc2ccc(F)cc2)c1C#N", "Potency": "active: 4.47 µM"},
      {"compound": "COc1nc(-c2ccccc2)nnc1-c1ccccc1", "Potency": "inconclusive: 0.224 µM [activator, full curve, poor fit]"},
      {"compound": "Cc1c(Cl)cccc1NC(=S)N(Cc1cccnc1)Cc1ccccc1Cl", "Potency": "inconclusive: 35.5 µM [inhibitor, single point]"},
      {"compound": "Cc1ccc(C(NC(=O)C(C)C)c2cc([N+](=O)[O-])c3cccnc3c2O)cc1", "note": "(configuration not stated)", "Potency": "inconclusive: 3.16 µM [inhibitor, single point]"},
      {"compound": "O=C(Nc1ccc(S(=O)(=O)N2CCOCC2)cc1)c1ccc([N+](=O)[O-])o1", "Potency": "inconclusive: 15.8 µM [inhibitor, single point]"},
      {"compound": "Cc1cccc2sc(N(CCCN(C)C)C(=O)CCS(=O)(=O)c3ccccc3)nc12", "Potency": "inconclusive: 35.5 µM [inhibitor, single point]"},
      {"compound": "Nc1ccc(N=Nc2ccccc2)c(N)n1", "Potency": "inconclusive: 631 nM [activator, full curve, poor fit] and inconclusive: 12.6 µM [activator, single point]"},
      {"compound": "CCNc1nc(Cl)nc(NC2CCCCC2)n1", "Potency": "inconclusive: 25.1 µM [activator, single point]"},
      {"compound": "CCCS(=O)(=O)N1CCN(Cc2ccc([N+](=O)[O-])cc2)CC1", "activity, negative = inhibition": "inactive: 5.03%"},
      {"compound": "COc1cccc(NS(=O)(=O)c2c(C)cc(C)cc2C)c1", "Potency": "inconclusive: 22.4 µM [inhibitor, partial curve, poor fit]"},
      {"compound": "CCn1c(N)c(C(N)=O)sc1=S", "activity, negative = inhibition": "inactive: -10%"},
      {"compound": "Cc1cnc(=O)[nH]c1SCc1cccc(C(F)(F)F)c1", "activity, negative = inhibition": "inactive: -6.49%"},
      {"compound": "Cc1cccc(C)c1NC(=S)/C(=C(\\[O-])c1cccs1)[n+]1ccccc1", "Potency": "active: 20 µM"},
      {"compound": "CC(C)(CCl)C(=O)Nc1ccc(C(F)(F)F)cc1", "Potency": "inconclusive: 12.6 µM [activator, single point]"},
      {"compound": "CC(C)C(=O)N1CCN(c2ccc(NC(=O)c3ccc([N+](=O)[O-])o3)cc2)CC1", "Potency": "inconclusive: 1 µM [inhibitor, full curve, poor fit]"},
      {"compound": "c1ccc2c(CCNc3ncnc4nc[nH]c34)cccc2c1", "Potency": "inconclusive: 22.4 µM [inhibitor, single point]"},
      {"compound": "CCc1ccc(Nc2nnc(SCC(=O)Nc3cccc(S(=O)(=O)NC4=NCCCCC4)c3)s2)cc1", "Potency": "inconclusive: 12.6 µM [inhibitor, partial curve]"},
      {"compound": "CCCCNC(=S)NNC(=O)c1cccnc1", "Potency": "active: 11.2 µM"},
      {"compound": "Cc1ccccc1OCCCn1c(=O)sc2ccccc21", "Potency": "active: 10 µM"},
      {"compound": "COCCNC(=O)/C(C#N)=C1\\N=C(N)c2ccccc21", "Potency": "inconclusive: 35.5 µM [inhibitor, single point]"},
      {"compound": "COc1ccc(-n2c(=O)c(-c3cccs3)nc3cnc(N4CCNCC4)nc32)cc1", "Potency": "active: 10 µM"},
      {"compound": "O=C(Oc1ccc(-c2ccccc2)cc1)C1C2CCCCC21", "note": "(configuration not stated)", "Potency": "inconclusive: 5.62 µM [activator, single point]"},
      {"compound": "CC(Nc1cc(N2CCN(C(=O)C(C)(C)C)CC2)ccc1[N+](=O)[O-])c1ccccc1", "note": "(configuration not stated)", "activity, negative = inhibition": "inactive: -13.3%"},
      {"compound": "CCn1c(SCc2cccc(C(F)(F)F)c2)nnc1-c1ccco1", "activity, negative = inhibition": "inactive: -0.888%"},
      {"compound": "CC[C@@H](C)[C@H](CNC)NC[C@@H](Cc1cccc2ccccc12)NCCc1cccc(C(F)(F)F)c1", "Potency": "inconclusive: 20 µM [inhibitor, single point]"},
      {"compound": "Clc1ccc(-c2onc3c2CCCC3)cc1", "Potency": "inconclusive: 35.5 µM [inhibitor, single point]"},
      {"compound": "Cc1cccc(C(=O)NCc2nnc(SCC(=O)Nc3nncs3)n2C)c1", "Potency": "inconclusive: 35.5 µM [inhibitor, single point]"},
      {"compound": "C=C(C)C1CC=C(C)/C(=N/Nc2ccccc2[N+](=O)[O-])C1", "note": "(configuration not stated)", "Potency": "inconclusive: 14.1 µM [activator, single point]"},
      {"compound": "CC1=C/C(=N\\OS(=O)(=O)c2ccccc2)C(C(C)C)=CC1=O", "Potency": "active: 0.794 µM"},
      {"compound": "CC(C)(C)c1nnc2sc(SC/C(O)=C(\\C#N)c3nc4ccccc4[nH]3)nn2c1=O", "Potency": "inconclusive: 5.62 µM [inhibitor, single point]"},
      {"compound": "O=C(c1cnccn1)N1CCC2(CCCN(c3cccc(-c4ccccc4)c3)C2)CC1", "activity, negative = inhibition": "inactive: -3.98%"},
      {"compound": "Cc1cc(-c2nnc(SCC(=O)Nc3cccc(F)c3)n2N)n[nH]1", "Potency": "inconclusive: 17.8 µM [inhibitor, single point]"},
      {"compound": "O=C(Nc1nc(-c2ccc(Cl)cc2Cl)cs1)c1ccc(OCC2CCCO2)cc1", "note": "(configuration not stated)", "Potency": "active: 17.8 µM"},
      {"compound": "Nn1c(SCC(=O)Nc2ccc(Oc3ccccc3)cc2)nnc1C1CC1", "Potency": "inconclusive: 2.51 µM [activator, partial curve, poor fit]"},
      {"compound": "COc1ccc(/C=C2/C(=O)N(c3c(F)c(F)c(F)c(F)c3F)N=C2C)cc1", "Potency": "inconclusive: 35.5 µM [inhibitor, single point]"},
      {"compound": "COc1ccc(OC)c(NC(=O)C(=O)/C=C(\\O)c2cc(OC)ccc2OC)c1", "Potency": "inconclusive: 22.4 µM [inhibitor, single point]"}
    ]}
  ]
}
